Test results as given in patent US8242166B2, “C(10) ethyl ester and C(10) cyclopropyl ester substituted taxanes” (Florida State University Research Foundation, Inc., priority 2008, dated 2012).
“And” between values parts separate entries of the source, which are not always exact repeats. Equal entries are not always repeated.

What was measured:
Sprague-Dawley rats [1] = conditions: rat, in vivo
Sprague-Dawley rats [2] = conditions: 12 mg/kg IV

CC(=O)O[C@@]12CO[C@@H]1C[C@H](O)[C@@]1(C)C(=O)[C@H](OC(=O)C3CC3)C3=C(C)[C@@H](OC(=O)[C@H](O)[C@@H](NC(=O)OC4CCC4)c4cccs4)C[C@@](O)([C@@H](OC(=O)c4ccccc4)C12)C3(C)C (stereo partly shown) [Compound 18365]
Day 4 ALT, points toward toxicity score (Sprague-Dawley rats [1]): 20 (key: 0: ALT elevation ≧2 × cont; ALT elevation ≧1.5 × cont; 10: ALT elevation ≧1.25 × cont; 20: ALT elevation <1.25 × cont)
Day 4 AST, points toward toxicity score (Sprague-Dawley rats [1]): 20 (key: 0: AST elevation ≧2 × cont.; AST elevation ≧1.5 × cont; 10: AST elevation ≧1.25 × cont; 20: AST elevation <1.25 × cont)
Day 4 BUN, points toward toxicity score (Sprague-Dawley rats [1]): 20 (key: 0: BUN elevation ≧2 × cont; BUN elevation ≧1.5 × cont; 10: BUN elevation ≧1.25 × cont; 20: BUN elevation <1.25 × cont)
Day 4 PLT, points toward toxicity score (Sprague-Dawley rats [1]): 20 (key: 0: Platelets decrease ≧75%; Platelets decrease ≧50%; 10: Platelets decrease ≧25%; 20: Platelets decrease <25%)
Neuro Tox (Sprague-Dawley rats [1]): 0 (key: 0: no degen axons; 1-3 degen axons; 2: 4-10 degen axons; 3: 11-50 degen axons; 4: 50+ degen axons)
Neuro Tox, points toward toxicity score (Sprague-Dawley rats [1]): 0 (key: Neurotoxicity N (0); −10: Neurotoxicity Y (1-4))
Score AVE (Sprague-Dawley rats [1]): 8.5

CCC(=O)O[C@H]1C(=O)[C@@]2(C)C([C@H](OC(=O)c3ccccc3)[C@]3(O)C[C@H](OC(=O)[C@H](O)[C@@H](NC(=O)OC4CCCC4)c4cccs4)C(C)=C1C3(C)C)[C@]1(OC(C)=O)CO[C@@H]1C[C@@H]2O (stereo partly shown) [Compound 18926]
Day 4 ALT, points toward toxicity score (Sprague-Dawley rats [1]): 20 (key: 0: ALT elevation ≧2 × cont; ALT elevation ≧1.5 × cont; 10: ALT elevation ≧1.25 × cont; 20: ALT elevation <1.25 × cont)
Day 4 AST, points toward toxicity score (Sprague-Dawley rats [1]): 20 (key: 0: AST elevation ≧2 × cont.; AST elevation ≧1.5 × cont; 10: AST elevation ≧1.25 × cont; 20: AST elevation <1.25 × cont)
Day 4 BUN, points toward toxicity score (Sprague-Dawley rats [1]): 20 (key: 0: BUN elevation ≧2 × cont; BUN elevation ≧1.5 × cont; 10: BUN elevation ≧1.25 × cont; 20: BUN elevation <1.25 × cont)
Day 4 PLT, points toward toxicity score (Sprague-Dawley rats [1]): 20 (key: 0: Platelets decrease ≧75%; Platelets decrease ≧50%; 10: Platelets decrease ≧25%; 20: Platelets decrease <25%)
Day 8 BW, points toward toxicity score (Sprague-Dawley rats [1]): 20 (key: Body Weight Loss ≧20%; Body Weight Loss ≧15%; Body Weight Loss ≧10%; 20: Body Weight Loss <10%)
Score AVE (Sprague-Dawley rats [1]): 8.5

CCC(=O)O[C@H]1C(=O)[C@@]2(C)C([C@H](OC(=O)c3ccccc3)[C@]3(O)C[C@H](OC(=O)[C@H](O)[C@@H](NC(=O)OC4CCC4)c4cccs4)C(C)=C1C3(C)C)[C@]1(OC(C)=O)CO[C@@H]1C[C@@H]2O (stereo partly shown) [Compound 19244]
rat toxicity Score, AVE (scale 0 to 10, higher = safer) (Sprague-Dawley rats [2]; average of 3 rats): 7.7
Day 1 BW (Sprague-Dawley rats [2]; individual rats): 231 and 230 and 227
Day 4 ALT (Sprague-Dawley rats [2]; individual rats): 26 and 19 and 28
Day 4 AST (Sprague-Dawley rats [2]; individual rats): 204 and 158 and 119
Day 4 BUN (Sprague-Dawley rats [2]; individual rats): 18 and 12 (2×)
Day 4 PLT (Sprague-Dawley rats [2]; individual rats): 1220 and 1005 and 792
Day 4 WBC (Sprague-Dawley rats [2]; individual rats): 3.87 and 3.52 and 4.92
Day 8 BW (Sprague-Dawley rats [2]; individual rats): 219 and 197 and 208
Day 10 BW (Sprague-Dawley rats [2]; individual rats): 227 and 203 and 221
Day 10 PLT (Sprague-Dawley rats [2]; individual rats): 994 and 1137 and 1370
Day 10 WBC (Sprague-Dawley rats [2]; individual rats): 16.4 and 15 and 11.7
Score (Total/13, scale 0 to 10) (Sprague-Dawley rats [2]; individual rats): 7.7
Total (toxicity score points, maximum 130) (Sprague-Dawley rats [2]; individual rats): 100
Day 4 ALT, points toward toxicity score (Sprague-Dawley rats [1]): 20 (key: 0: ALT elevation ≧2 × cont; ALT elevation ≧1.5 × cont; 10: ALT elevation ≧1.25 × cont; 20: ALT elevation <1.25 × cont)
Day 4 AST, points toward toxicity score (Sprague-Dawley rats [1]): 20 (key: 0: AST elevation ≧2 × cont.; AST elevation ≧1.5 × cont; 10: AST elevation ≧1.25 × cont; 20: AST elevation <1.25 × cont)
Day 4 BUN, points toward toxicity score (Sprague-Dawley rats [1]): 20 (key: 0: BUN elevation ≧2 × cont; BUN elevation ≧1.5 × cont; 10: BUN elevation ≧1.25 × cont; 20: BUN elevation <1.25 × cont)
Day 4 PLT, points toward toxicity score (Sprague-Dawley rats [1]): 10 (key: 0: Platelets decrease ≧75%; Platelets decrease ≧50%; 10: Platelets decrease ≧25%; 20: Platelets decrease <25%)
Score AVE (Sprague-Dawley rats [1]): 7.1
